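1) Cells in 96-well plates. 2) Compound, 48 h, 5 concentrations. 3) Linear interpolation between surrounding doses. 4) Unreached endpoint = highest concentration. Abbreviation: GI50, concentration required for 50% inhibition of growth.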 Not every entry of the source has a single result; some have several. The list is limited to them. An entry can have further records. For some assays here: A record mostly stands for its own series of concentrations, which the source does not state; a value can be the end of its range. A tag in brackets gives the origin of a value. A, B and so on number the origins entry by entry. For some assays here: Values given together are repeats across runs, samples, wells, individuals or studies.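 TGI marks complete inhibition of growth.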
How the values were obtained:
Test in all cases: NCI tumour cell line growth inhibition, 48 h
786-0 renal = tested on: 786-0 renal
A498 renal = tested on: A498 renal
A549 NSCLC = tested on: A549 NSCLC
BT-549 breast = tested on: BT-549 breast
CAKI-1 renal = tested on: CAKI-1 renal
COLO 205 colon = tested on: COLO 205 colon
DLD-1 colon = tested on: DLD-1 colon
DU-145 prostate = tested on: DU-145 prostate
EKVX NSCLC = tested on: EKVX NSCLC
HCC-2998 colon = tested on: HCC-2998 colon
HCT-116 colon = tested on: HCT-116 colon
HCT-15 colon = tested on: HCT-15 colon
HL-60(TB) leukemia = tested on: HL-60(TB) leukemia
HOP-92 NSCLC = tested on: HOP-92 NSCLC
HS 578T breast = tested on: HS 578T breast
HT29 colon = tested on: HT29 colon
IGROV1 ovarian = tested on: IGROV1 ovarian
K-562 leukemia = tested on: K-562 leukemia
KM12 colon = tested on: KM12 colon
KM20L2 colon = tested on: KM20L2 colon
LOX IMVI melanoma = tested on: LOX IMVI melanoma
M14 melanoma = tested on: M14 melanoma
M19-MEL melanoma = tested on: M19-MEL melanoma
MALME-3M melanoma = tested on: MALME-3M melanoma
MCF7 breast = tested on: MCF7 breast
MOLT-4 leukemia = tested on: MOLT-4 leukemia
NCI-H23 lung = tested on: NCI-H23 lung
NCI-H460 lung = tested on: NCI-H460 lung
NCI-H522 lung = tested on: NCI-H522 lung
NCI/ADR-RES ovarian = tested on: NCI/ADR-RES ovarian
OVCAR-3 ovarian = tested on: OVCAR-3 ovarian
OVCAR-4 ovarian = tested on: OVCAR-4 ovarian
OVCAR-8 ovarian = tested on: OVCAR-8 ovarian
RPMI-8226 leukemia = tested on: RPMI-8226 leukemia
RXF 393 renal = tested on: RXF 393 renal
SF-268 CNS = tested on: SF-268 CNS
SF-295 CNS = tested on: SF-295 CNS
SF-539 CNS = tested on: SF-539 CNS
SK-MEL-2 melanoma = tested on: SK-MEL-2 melanoma
SK-MEL-28 melanoma = tested on: SK-MEL-28 melanoma
SK-MEL-5 melanoma = tested on: SK-MEL-5 melanoma
SK-OV-3 ovarian = tested on: SK-OV-3 ovarian
SN12C renal = tested on: SN12C renal
SNB-19 CNS = tested on: SNB-19 CNS
SNB-75 CNS = tested on: SNB-75 CNS
SNB-78 CNS = tested on: SNB-78 CNS
SR leukemia = tested on: SR leukemia
SW-620 colon = tested on: SW-620 colon
UACC-257 melanoma = tested on: UACC-257 melanoma
UACC-62 melanoma = tested on: UACC-62 melanoma

## COc1cc([C@@H]2c3cc4c(c(O)c3C[C@H]3COC(=O)[C@@H]32)OCO4)cc(OC)c1OC
786-0 renal
  GI50: 4.65 nM [sample A, 1 test] and 413 nM [sample B, mean of 2 tests]
A498 renal
  GI50: 0.563 nM [sample A, 1 test] and 305 nM [sample B, mean of 2 tests]
A549 NSCLC
  TGI: 1.5 nM, 150 µM, > 241 µM [sample A] and > 100 µM [sample B]
BT-549 breast
  GI50: 2.37 nM, 56.5 µM [sample A, 1 test] and 390 nM [sample B, mean of 2 tests]
  TGI: 375 nM, 228 µM [sample A, 1 test] and > 90.8 µM [sample B, mean of 2 tests]
CAKI-1 renal
  TGI: 1.5 nM, 189 nM, 132 µM [sample A] and > 100 µM [sample B]
COLO 205 colon
  TGI: 1.5, 122, 12.9, 25.7, 24.4 nM [sample A] and 1.29 µM [sample B]
DLD-1 colon
  TGI: 1.5 nM and 150 µM
DU-145 prostate
  GI50: 2.09 nM [sample A, 1 test] and 294 nM [sample B, mean of 2 tests]
  TGI: 6 nM, < 24.1 nM [sample A] and 4.77 µM [sample B]
EKVX NSCLC
  TGI: 23.8 µM, > 241 µM [sample A] and > 100 µM [sample B]
HCC-2998 colon
  TGI: 6.96 µM, < 24.1 nM [sample A] and > 100 µM [sample B]
HCT-116 colon
  TGI: 1.5 nM, 25.8 nM, 23.8 µM, < 24.1 nM [sample A] and > 100 µM [sample B]
HCT-15 colon
  TGI: 1.5 nM, 7.46 nM, 15 µM [sample A] and > 100 µM [sample B]
HL-60(TB) leukemia
  TGI: 103 nM, 2.15 µM, > 241 µM
HOP-92 NSCLC
  TGI: 134 nM, 48.3 µM [sample A] and > 100 µM [sample B]
HS 578T breast
  GI50: 0.311 nM [sample A, 1 test] and 585 nM [sample B, 1 test]
  TGI: 0.936 nM, 68.2 µM [sample A] and > 100 µM [sample B]
HT29 colon
  TGI: 994 nM [sample A, 1 test] and 17.9 µM [sample A, mean of 2 tests] and 7.89 µM [sample B, mean of 2 tests]
IGROV1 ovarian
  TGI: 1.5 nM, 140 µM, > 241 µM [sample A] and > 100 µM [sample B]
K-562 leukemia
  TGI: 0.643 nM, 59.5 µM, > 241 µM [sample A] and > 100 µM [sample B]
KM12 colon
  TGI: 0.332 nM, 23.8 µM, < 24.1 nM
KM20L2 colon
  GI50: 1.5 nM [1 test] and 30.8 nM [mean of 4 tests]
LOX IMVI melanoma
  TGI: 0.15 nM, 3.42 nM, 22.1 µM, 150 µM, > 241 µM [sample A] and > 100 µM [sample B]
M14 melanoma
  GI50: 1.54 nM [sample A, 1 test] and 103 nM [sample B, mean of 2 tests]
M19-MEL melanoma
  TGI: 1.5 nM and 150 µM
MALME-3M melanoma
  TGI: 1.5 nM, 120 µM, 156 µM [sample A] and > 100 µM [sample B]
MCF7 breast
  TGI: 1.5 nM, 10.2 µM, 113 µM [sample A] and > 100 µM [sample B]
MOLT-4 leukemia
  TGI: 150 nM, > 241 µM [sample A] and > 58.3 µM [sample B]
NCI-H23 lung
  GI50: 0.0845 nM, 1.25 nM [sample A, 1 test] and 643 nM [sample A, mean of 2 tests] and 273 nM [sample B, mean of 2 tests]
  TGI: 1.5 nM, 5.29 nM [sample A, 1 test] and 91.3 µM [sample A, mean of 2 tests] and > 100 µM [sample B, mean of 2 tests]
NCI-H460 lung
  TGI: 1.5 nM, 15.4 µM, 34.8 µM
NCI-H522 lung
  TGI: 0.0724 nM, 0.391 nM, 76.2 nM [sample A] and > 100 µM [sample B]
NCI/ADR-RES ovarian
  GI50: 0.0232 nM, 0.29 nM [sample A, 1 test] and 203 nM [sample B, 1 test]
  TGI: 0.112 nM, 1.33 nM [sample A, 1 test] and > 100 µM [sample B, 1 test]
OVCAR-3 ovarian
  TGI: 1.5 nM, 6.52 nM, 72.1 nM, 1.27 µM [sample A] and 282 nM [sample B]
OVCAR-4 ovarian
  TGI: 22.8 µM, > 241 µM [sample A] and > 100 µM [sample B]
OVCAR-8 ovarian
  GI50: 1.83 nM [sample A, 1 test] and 271 nM [sample B, mean of 2 tests]
  TGI: 5.83 nM, 85.5 µM [sample A] and > 100 µM [sample B]
RPMI-8226 leukemia
  GI50: 0.993 nM [1 test] and 24.1 nM [mean of 2 tests]
RXF 393 renal
  TGI: 1.7 µM [sample A, mean of 2 tests] and 122 nM [sample A, mean of 4 tests] and > 100 µM [sample B, 1 test]
SF-268 CNS
  TGI: 1.5 nM, 8.57 nM, 24.6 µM, > 241 µM [sample A] and > 100 µM [sample B]
SF-295 CNS
  TGI: 1.5 nM, 2.37 nM [sample A, 1 test] and > 100 µM [sample B, 1 test]
SF-539 CNS
  TGI: 0.098 nM, 11.7 nM, < 24.1 nM [sample A, 1 test] and 300 nM [sample B, mean of 2 tests]
SK-MEL-2 melanoma
  TGI: 0.464 nM, 103 µM, 91.1 µM [sample A] and > 100 µM [sample B]
SK-MEL-28 melanoma
  TGI: 1.5 nM, > 241 µM [1 test] and 150 µM [mean of 5 tests]
SK-MEL-5 melanoma
  TGI: 0.551 nM, 348 nM [sample A, 1 test] and 1.02 µM [sample A, mean of 2 tests] and 466 nM [sample B, mean of 2 tests]
SK-OV-3 ovarian
  TGI: 1.5 nM [sample A, 1 test] and 274 nM [sample A, mean of 2 tests] and 143 µM [sample A, mean of 3 tests] and > 100 µM [sample B, mean of 2 tests]
SN12C renal
  TGI: 1.5 nM, 1.5 µM, > 241 µM [sample A] and > 100 µM [sample B]
SNB-19 CNS
  TGI: 1.5 nM, 6.96 µM, > 241 µM [sample A] and > 100 µM [sample B]
SNB-75 CNS
  TGI: 956 nM, 15 µM, 156 µM [sample A] and > 100 µM [sample B]
SNB-78 CNS
  TGI: 1.5 nM and 133 µM
SR leukemia
  TGI: 7.99 µM, > 241 µM [sample A] and > 100 µM [sample B]
SW-620 colon
  TGI: 1.5 nM, 150 µM, > 241 µM [sample A] and > 100 µM [sample B]
UACC-257 melanoma
  TGI: 239 µM [sample A, mean of 2 tests] and 8.44 µM [sample A, mean of 4 tests] and > 100 µM [sample B, 1 test]
UACC-62 melanoma
  TGI: 1.5 nM, 246 nM, 129 µM [sample A, 1 test] and 150 µM [sample A, mean of 5 tests] and > 100 µM [sample B, 1 test]

Source: PubChem BioAssay (NCI)
